{
  "source": "paper PMC4336329",
  "about": "(PLoS ONE, 2015)",
  "note": "The campaign covered roughly 310,000 compounds. About 2,200 (0.71%) showed an effect of 50% or more. The effect is printed as a negative number. This is one part of the list.",
  "data": [
    {"target": "human ether-à-go-go-related gene (hERG) potassium channel (human, UniProt Q12809)", "sequence (Q12809 whole entry, looked up)": "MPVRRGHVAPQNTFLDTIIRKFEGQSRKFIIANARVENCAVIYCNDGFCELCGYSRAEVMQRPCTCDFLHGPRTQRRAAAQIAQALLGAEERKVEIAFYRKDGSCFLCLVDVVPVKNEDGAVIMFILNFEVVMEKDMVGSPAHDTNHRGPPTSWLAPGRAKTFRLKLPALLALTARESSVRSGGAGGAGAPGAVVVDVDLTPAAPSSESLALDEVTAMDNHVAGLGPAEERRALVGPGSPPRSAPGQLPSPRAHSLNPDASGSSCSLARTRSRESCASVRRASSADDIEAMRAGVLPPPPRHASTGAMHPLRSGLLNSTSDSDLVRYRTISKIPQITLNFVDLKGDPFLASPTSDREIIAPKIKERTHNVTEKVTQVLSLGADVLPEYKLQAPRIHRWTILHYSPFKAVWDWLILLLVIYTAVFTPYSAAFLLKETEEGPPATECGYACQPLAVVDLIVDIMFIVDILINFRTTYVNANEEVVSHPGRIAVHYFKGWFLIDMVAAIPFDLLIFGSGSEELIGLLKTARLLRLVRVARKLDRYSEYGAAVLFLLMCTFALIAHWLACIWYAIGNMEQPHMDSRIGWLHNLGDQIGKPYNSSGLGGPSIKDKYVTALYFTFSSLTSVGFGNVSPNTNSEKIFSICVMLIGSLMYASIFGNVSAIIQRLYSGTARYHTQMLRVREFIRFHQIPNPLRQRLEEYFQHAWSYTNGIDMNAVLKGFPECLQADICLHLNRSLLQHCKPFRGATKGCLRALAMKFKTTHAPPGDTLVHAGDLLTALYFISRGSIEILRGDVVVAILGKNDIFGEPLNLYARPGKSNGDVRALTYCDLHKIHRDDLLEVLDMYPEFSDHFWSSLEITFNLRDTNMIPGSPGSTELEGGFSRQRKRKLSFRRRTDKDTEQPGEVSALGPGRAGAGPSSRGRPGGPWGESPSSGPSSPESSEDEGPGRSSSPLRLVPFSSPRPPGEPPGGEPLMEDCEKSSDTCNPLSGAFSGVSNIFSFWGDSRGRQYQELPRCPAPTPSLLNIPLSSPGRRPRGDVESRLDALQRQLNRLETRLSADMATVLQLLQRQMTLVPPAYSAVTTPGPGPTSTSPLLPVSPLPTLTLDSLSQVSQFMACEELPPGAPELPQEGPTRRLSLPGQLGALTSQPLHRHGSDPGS", "test": "primary screen, population patch clamp on CHO cells stably expressing hERG", "units": {"hERG current change (%, negative = inhibition) at 1uM": "%"}, "values": [
      {"smiles": "COc1ccc(C(CC(=O)NC(C)(C)C)n2cccc2)cc1", "note": "(stereo not drawn)", "hERG current change (%, negative = inhibition) at 1uM": 10.1},
      {"smiles": "CCN(CC)S(=O)(=O)c1cc([N+](=O)[O-])ccc1NNC(=O)Nc1ccccc1", "hERG current change (%, negative = inhibition) at 1uM": 2.42},
      {"smiles": "Cc1ccccc1-c1noc(-c2cccs2)n1", "hERG current change (%, negative = inhibition) at 1uM": 15.2},
      {"smiles": "Cc1nc2ccc(S(=O)(=O)Nc3ccccc3C)cc2s1", "hERG current change (%, negative = inhibition) at 1uM": 3.07},
      {"smiles": "O=C(CSCC(=O)c1ccccc1)Nc1ccccc1Cl", "hERG current change (%, negative = inhibition) at 1uM": 10.2},
      {"smiles": "COc1ccc(-c2ncncc2-c2csc(C)n2)c(O)c1", "hERG current change (%, negative = inhibition) at 1uM": 1.8},
      {"smiles": "CSc1nc(O)c(C(c2ccccc2Cl)c2c(O)nc(SC)[nH]c2=O)c(=O)[nH]1", "hERG current change (%, negative = inhibition) at 1uM": 0.693},
      {"smiles": "Cc1cccc(N2CCN(C(=O)c3ccc4c(c3)NC(=O)C(CSCc3ccc(F)cc3)N4)CC2C)c1", "note": "(stereo not drawn)", "hERG current change (%, negative = inhibition) at 1uM": 5.51},
      {"smiles": "CCOc1ccccc1NC(=O)C(NCC1CCCCC1)c1ccccc1", "note": "(stereo not drawn)", "hERG current change (%, negative = inhibition) at 1uM": 8.03},
      {"smiles": "CC(C)Oc1ccc(S(=O)(=O)N2CCOCC2)cc1NC(=O)C1COc2ccccc2O1", "note": "(stereo not drawn)", "hERG current change (%, negative = inhibition) at 1uM": -3.54},
      {"smiles": "Cc1ccc(NC2CCCN(C(=O)c3ccnc(Cl)c3)C2)cc1C", "note": "(stereo not drawn)", "hERG current change (%, negative = inhibition) at 1uM": 4.81},
      {"smiles": "Cc1cccc2cc(/C=N/NC(=O)[C@H]3C[C@@H]3c3ccccc3)c(Cl)nc12", "hERG current change (%, negative = inhibition) at 1uM": 9.17},
      {"smiles": "COc1ccc(CCNC(=O)Cc2ccc(OC)c(OC)c2)cc1OC", "hERG current change (%, negative = inhibition) at 1uM": -5.3},
      {"smiles": "Cc1cc(=O)[nH]c(SCC(=O)N2CCc3ccccc3C2)n1", "hERG current change (%, negative = inhibition) at 1uM": 12.1},
      {"smiles": "Cl.O=C(C1CCN(S(=O)(=O)c2cccs2)CC1)N1CCN(Cc2ccccc2)CC1", "hERG current change (%, negative = inhibition) at 1uM": 19.9},
      {"smiles": "Cn1cccc1/C=C1\\CC(C(C)(C)C)C/C(=C\\c2cccn2C)C1=O", "note": "(stereo not drawn)", "hERG current change (%, negative = inhibition) at 1uM": 1.03},
      {"smiles": "COc1cc2c(cc1OC)C(c1cc3cccc(C)c3[nH]c1=O)N(C(=O)c1ccco1)CC2", "note": "(stereo not drawn)", "hERG current change (%, negative = inhibition) at 1uM": 13.6},
      {"smiles": "O=C(NCCCn1ccnc1)/C(=C\\c1cccnc1)NC(=O)c1ccccc1Br", "hERG current change (%, negative = inhibition) at 1uM": 9.44},
      {"smiles": "N#C/C(=C\\N1CCCCC1)S(=O)(=O)c1ccc(Cl)cc1", "hERG current change (%, negative = inhibition) at 1uM": 16.6},
      {"smiles": "OCCN(CCCn1c(C(F)(F)F)nc2ccccc21)c1nc(CN2CCCCC2)cs1", "hERG current change (%, negative = inhibition) at 1uM": 3.66},
      {"smiles": "CC(C)(C)c1ccc(C(CC(=O)O)NC(=O)CSc2ccccc2)cc1", "note": "(stereo not drawn)", "hERG current change (%, negative = inhibition) at 1uM": 15.3},
      {"smiles": "CC(C)CNC(=O)CSc1nnc(CN2CCCCCC2=O)n1-c1ccccn1", "hERG current change (%, negative = inhibition) at 1uM": 6.34},
      {"smiles": "Cl.Fc1ccc2c(c1)nnn2C1CCN(Cc2nnnn2CCc2ccccc2)CC1", "hERG current change (%, negative = inhibition) at 1uM": -37.1},
      {"smiles": "Cc1ccc(C(=O)NCCc2ccc(S(N)(=O)=O)cc2)o1", "hERG current change (%, negative = inhibition) at 1uM": 16.2}
    ]}
  ]
}
